Laboratory results reported in PubChem BioAssay AID2451 (National Center for Advancing Translational Sciences (NCATS), 2010).
Where “and” joins values, the source holds several entries; their conditions need not be identical. Equal entries are not always repeated. Among all 290,000 compounds or so, about 2,100 (0.72%) were called active. This list was built around the results that the source calls inconclusive (neither active nor inactive); the mix of calls is not that of the screen. The call rests on the fitted dose curve; in most records, active means well fitted inhibition curve with a large enough effect; inconclusive means small, poorly fitted or top-dose-only effect, or effect the other way; inactive means flat fitted curve, though single readings scatter. Where the call is inconclusive, the potency comes from a doubtful curve fit. Starred links: 1 amine or outer side, 2 acyl side, 3 side chain; linkers in the order of their positions; H or OH if unused. Positions of bridges follow the written chain, without caps; N, C: chain ends. Non-standard residues stand in square brackets, D forms with d. Residues, ends and D or L forms follow the SMILES beside them. Chains are numbered I, II in the order given. Actinocin(9to1) = Cc1c2oc3c(C)ccc(C(=O)[*:1])c3nc-2c(C(=O)[*:2])c(N)c1=O; NMeV = CN[C@H](C(=O)O)C(C)C; Sar = CNCC(=O)O

Each compound was assayed against Fructose-bisphosphate aldolase (Giardia intestinalis (strain ATCC 50803 / WB clone C6)) (UniProt A8B2U2) (assay: qHTS Assay for Inhibitors of Fructose-1,6-bisphosphate Aldolase from Giardia Lamblia). Conditions: purified Giardia FBPA; activity, negative = inhibition: at 59.6 µM (top of the series) unless noted.
Outline: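 Giardia FBPA (40 nM reagent) was preincubated 10 min at RT with compound (up to 57.5 uM final), then substrate plus GAPDH/TPI/NAD/arsenate coupling system with diaphorase/resazurin was added; resorufin fluorescence (525/598 nm) was read after 20 min.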
Further: nearly all actives have a fitted effect of over 55% in size.
On the % scale 0 is the no-effect control and ±100 the full control effect; potency means the concentration at half of the fitted maximal effect; tags describe the fitted curve by direction and shape.

UniProt A8B2U2, sequence (A8B2U2 whole entry, looked up): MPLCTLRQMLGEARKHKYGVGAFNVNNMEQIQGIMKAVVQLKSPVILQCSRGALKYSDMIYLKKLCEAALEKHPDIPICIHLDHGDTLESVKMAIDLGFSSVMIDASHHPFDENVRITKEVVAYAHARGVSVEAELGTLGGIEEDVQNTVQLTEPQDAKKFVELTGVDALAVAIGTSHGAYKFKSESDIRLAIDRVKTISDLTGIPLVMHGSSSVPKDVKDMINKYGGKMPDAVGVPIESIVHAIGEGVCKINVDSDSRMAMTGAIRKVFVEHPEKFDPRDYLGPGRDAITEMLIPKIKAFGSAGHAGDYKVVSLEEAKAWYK

Compound	Potency	activity, negative = inhibition
Cc1cccc2nc(CSc3ncccc3C(=O)O)cn12	inconclusive: 22.3 µM [inhibitor, single point]	
COc1ccc(Cn2c(SCc3ccc(C)cc3)nc3cc(OC)c(OC)cc3c2=N)cc1Cl		inactive: -4.01%
N/N=c1\sc2ccccc2n1-c1ccccc1	inconclusive: 22.3 µM [inhibitor, single point]	
O=C(Nc1ccccc1C(=O)NC(Cc1ccccc1)C(=O)O)c1ccccc1 (stereo not given)	inconclusive: 17.7 µM [activator, single point]	
CS/C(N)=N/N=C/c1ccc([N+](=O)[O-])cc1	inconclusive: 22.3 µM [inhibitor, single point]	
COc1ccc(Cc2nnc(NC(=O)Nc3ccccc3)s2)cc1OC		inactive: 0.483%
COc1ccc(S(=O)(=O)N2CCCC(C(=O)Nc3cccc(C(C)=O)c3)C2)cc1 (stereo not given)		inactive: -8.27%
Cc1ccsc1/C=N/NC(=O)CSCc1ccc(Cl)cc1	inconclusive: 15.8 µM [inhibitor, partial curve]	
CN(Cc1ccc(F)cc1)S(=O)(=O)c1nnc(NC(=O)c2ccccc2)s1	inconclusive: 20 µM [inhibitor, partial curve, poor fit]	
CC(=O)Nc1ccc(S(=O)(=O)NC2=C(N3CCN(Cc4ccccc4)CC3)C(=O)c3ccccc3C2=O)cc1	inconclusive: 3.97 µM [inhibitor, full curve]	
CN1CCN(C(=S)NC(=O)c2cccc([N+](=O)[O-])c2)CC1	active: 1.78 µM	
O=[N+]([O-])c1cccc(CN2CC=C(c3ccc(F)cc3)CC2)c1	inconclusive: 17.8 µM [inhibitor, partial curve]	
Cn1cc(/C=C2\SC(=S)N(NC(=O)c3ccccc3Cl)C2=O)c2ccccc21	inconclusive: 15.8 µM [inhibitor, single point]	
CCCCC1=CC2=C(c3ccco3)C(=O)C(C)(OC(=O)c3ccc(OC)cc3)C(=O)C2=CN1C1CCCC1 (stereo not given)	inconclusive: 1.26 µM [inhibitor, partial curve]	
CC(C)n1cnc2c(Nc3cccc(Cl)c3)nc(N(CCO)CCCO)nc21	inconclusive: 17.7 µM [inhibitor, single point]	
CCCCN1C(=O)C(=Nc2cccc3cnccc23)c2ccccc21	inconclusive: 9.98 µM [inhibitor, partial curve]	
CCOc1ccc2nc(SCC(=O)N3CCCCCC3)c(C#N)cc2c1	inconclusive: 44.6 µM [inhibitor, single point]	
CC1CCN(CCCCOc2ccc(F)cc2)CC1	inconclusive: 15.8 µM [inhibitor, partial curve]	
CCc1ccc(-c2nnn(CCC(=O)OC)n2)cc1		inactive: -4.69%
COC(=O)C1=C(C)N(c2cccc(OC)c2)C(=O)/C1=C\c1ccco1		inactive: 3.48%
Cc1ccc(C)n1-c1nc(=S)[nH][nH]1	active: 17.7 µM	
O=C(Nc1nc(-c2ccccn2)cs1)C12CC3CC(CC(O)(C3)C1)C2	inconclusive: 25.1 µM [inhibitor, single point]	
NC(=S)N/N=C/c1cccc(O)c1O	inconclusive: 2.23 µM [inhibitor, partial curve, poor fit]	
COc1cc(CN2CCCC(C(=O)N3CCc4ccccc4C3)C2)cc(OC)c1OC (stereo not given)	inconclusive: 14.1 µM [inhibitor, partial curve]	

Compound	Potency	activity, negative = inhibition
Cc1ccc(NC(=O)CN(C)C2CCCCC2)cc1Cl	active: 20 µM	
CNc1nc(NN)nc(Nc2ccccc2)n1	inconclusive: 12.6 µM [activator, partial curve]	
Cc1cc(=O)[nH]c(SCC(=O)c2ccc(O)c(O)c2)n1	active: 8.91 µM	
Cc1c(C)n(O)c2ccc3nonc3c12	inconclusive: 7.06 µM [inhibitor, partial curve]	
Cc1cc(C)n(-c2nc(SCCN(C)C)c3c4c(sc3n2)CCCC4)n1		inactive: 10.1%
O=C(CSCc1ccc(Cl)cc1)N/N=C/c1ccco1	inconclusive: 15.8 µM [inhibitor, partial curve]	
COc1cc([N+](=O)[O-])ccc1NC(=S)N1CCN(c2ccccn2)CC1	inconclusive: 19.9 µM [inhibitor, partial curve]	
COc1ccc(Oc2ncc3nc(-c4cccs4)c(=O)n(C)c3n2)cc1		inactive: -10.6%
Cc1c2oc3c(C)ccc(C(=O)N[C@@H]4C(=O)N[C@H](C(C)C)C(=O)N5CCC[C@H]5C(=O)N(C)CC(=O)N(C)[C@@H](C(C)C)C(=O)O[C@@H]4C)c3nc-2c(C(=O)N[C@@H]2C(=O)N[C@H](C(C)C)C(=O)N3CCC[C@H]3C(=O)N(C)CC(=O)N(C)[C@@H](C(C)C)C(=O)O[C@@H]2C)c(N)c1=O (I: T[dV]P[Sar][NMeV] / II: T[dV]P[Sar][NMeV]; ester I:1-I:C, II:1-II:C; linker I:N-II:N via Actinocin(9to1))	inconclusive: 7.06 µM [inhibitor, partial curve]	
O=C(NNC(=S)NC(=O)c1cccc([N+](=O)[O-])c1)c1ccc(Br)cc1	inconclusive: 5.01 µM [inhibitor, partial curve]	
COc1cccc(-c2nc(-c3ccccc3)c(-c3ccccc3)[nH]2)c1OCC(=O)O		inactive: -5.9%
CCN(C(=O)c1nn(-c2ccc(OC)cc2)c(=O)c2c1c1ccccc1n2C)c1ccc(OC)cc1	inconclusive: 15.8 µM [inhibitor, single point]	
COc1ccc(CC(=O)Nc2cc(C)ccn2)cc1		inactive: 7.1%
Cc1[nH][nH]c(=O)c1C(c1ccc(-c2cccc(Cl)c2)o1)c1c(C)[nH][nH]c1=O	active: 5 µM	
COc1ccc2c(c1)c(CC(=O)OCC(=O)O)c(C)n2C(=O)c1ccc(Cl)cc1	inconclusive: 15.8 µM [activator, single point]	
OC(CNC1CCCC1)COc1ccc(F)cc1 (stereo not given)	inconclusive: 22.4 µM [inhibitor, partial curve]	
Cc1csc(NC(=S)NC(=O)c2ccccc2)n1	active: 7.94 µM	
CC(C)OC(=O)CC1C(=O)NCCN1C(=S)NC(=O)c1ccccc1Cl (stereo not given)	inconclusive: 15.8 µM [inhibitor, single point]	
COc1ccccc1NC(=O)CN(c1ccc(C)cc1)S(=O)(=O)c1c(C)n[nH]c1C		inactive: -6.16%
CCc1nc(SCc2ccccc2C)n[nH]1	inconclusive: 35.5 µM [inhibitor, single point]	
CCc1ccc(C(=O)NNc2ccccc2F)cc1		inactive: 2.34%
Cc1nnc(N/N=C/c2cc(C)n(-c3ccc(F)cc3)c2C)n1N	active: 9.98 µM	
CCOc1ccc(N2CC(C(=O)Nc3ccc(S(=O)(=O)NCC4CCCO4)cc3)CC2=O)cc1 (stereo not given)		inactive: -1.84%
COc1cc(C(=O)NC(=S)Nc2ccc3c(c2)C(=O)N(C)C3=O)cc(OC)c1OC	inconclusive: 0.794 µM [inhibitor, full curve]	

Compound	Potency	activity, negative = inhibition
CCNC(=O)O/N=C1\CCCCC1c1ccc([N+](=O)[O-])cc1[N+](=O)[O-] (stereo not given)	inconclusive: 15.8 µM [inhibitor, partial curve]	
COc1cc(-c2ncc3ccccn23)cc(OC)c1OC	inconclusive: 15.8 µM [inhibitor, partial curve]	
CC1CCc2sc(C(=O)NN)cc2C1 (stereo not given)		inactive: -0.419%
CSc1ncc(C(=O)Nc2ccccc2)cn1		inactive: 5.11%
C[C@@H]1/C=C\CC(=O)OC[C@H](C)C(=O)N[C@@H](C)C(=O)OC1		inactive: 0.768% [at 12.9 µM]
O=C1C(O)=C(O)C(=O)C(O)=C1O	active: 12.6 µM	
Cc1nccn1CC1CCc2c(c3ccccc3n2C)C1=O (stereo not given)	active: 20 µM	
CCCc1nc2ccccc2n1CCOC		inactive: -0.233%
O=C(Nc1nccs1)C1CCCN1S(=O)(=O)c1ccc(Cl)cc1 (stereo not given)		inactive: -2.51%
O=c1[nH]c2ccccc2c(O)c1-c1ccccc1[N+](=O)[O-]		inactive: -4.66%
CCOc1ccc(N(C(=O)OC(C)(C)C)C(=O)c2ccc(O[Si](C)(C)C(C)(C)C)cc2)c(I)c1		inactive: -1.25%
COc1ccc(CCn2c(N)c(C(=O)NCc3ccco3)c3nc4ccccc4nc32)cc1OC	inconclusive: 14.1 µM [inhibitor, partial curve]	
COc1ccc(OCC#CCn2ccnc2)cc1	inconclusive: 19.9 µM [inhibitor, partial curve]	
Cc1cc(=O)[nH]c(-n2[nH]c(C)cc2=O)n1	inconclusive: 17.7 µM [inhibitor, single point]	
COC(=O)CCCC1=CC2=CC(=O)C(C)(OC(=O)c3cccs3)C(=O)C2=CN1CCN1CCOCC1 (stereo not given)	inconclusive: 998 nM [inhibitor, full curve] and inconclusive: 998 nM [inhibitor, single point]	
Cn1c(-c2cccc([N+](=O)[O-])c2)cnc1NCc1cccc(F)c1	active: 28.2 µM	
CCOC(=O)c1c(C)[nH]c(C(=O)CN2CCN(CC)CC2)c1C	inconclusive: 12.6 µM [inhibitor, partial curve]	
Cc1ccsc1C1C2=C(CCCC2=O)Nc2ncnn21 (stereo not given)	inconclusive: 19.9 µM [inhibitor, partial curve]	
Cc1c(S(=O)(=O)c2ccccn2)c(N)n(Cc2ccccc2)c1C		inactive: -8.43%
Cc1ccccc1NC(=S)C1=C(O)c2sccc2N(C)S1(=O)=O	inconclusive: 15.8 µM [inhibitor, partial curve]	
O=C(c1cc2cc(Cl)ccc2[nH]1)N1CCN(Cc2ccc3c(c2)OCO3)CC1	inconclusive: 28.2 µM [inhibitor, partial curve]	
CC(C)(C)CN1CCNC(=O)C1CC(=O)NCCc1ccccc1C(F)(F)F (stereo not given)		inactive: -18.7%
